Here are results for three substances from PMC10957897, “An evolutionary mechanism to assimilate new nutrient sensors into the mTORC1 pathway” (Nature Communications, 2024).

The chains behind the UniProt entries cited, without tags or fusion partners. Where a name states a change or a piece, a line headed by the entry shows the natural chain unless it says otherwise.
UniProt Q9W0E3: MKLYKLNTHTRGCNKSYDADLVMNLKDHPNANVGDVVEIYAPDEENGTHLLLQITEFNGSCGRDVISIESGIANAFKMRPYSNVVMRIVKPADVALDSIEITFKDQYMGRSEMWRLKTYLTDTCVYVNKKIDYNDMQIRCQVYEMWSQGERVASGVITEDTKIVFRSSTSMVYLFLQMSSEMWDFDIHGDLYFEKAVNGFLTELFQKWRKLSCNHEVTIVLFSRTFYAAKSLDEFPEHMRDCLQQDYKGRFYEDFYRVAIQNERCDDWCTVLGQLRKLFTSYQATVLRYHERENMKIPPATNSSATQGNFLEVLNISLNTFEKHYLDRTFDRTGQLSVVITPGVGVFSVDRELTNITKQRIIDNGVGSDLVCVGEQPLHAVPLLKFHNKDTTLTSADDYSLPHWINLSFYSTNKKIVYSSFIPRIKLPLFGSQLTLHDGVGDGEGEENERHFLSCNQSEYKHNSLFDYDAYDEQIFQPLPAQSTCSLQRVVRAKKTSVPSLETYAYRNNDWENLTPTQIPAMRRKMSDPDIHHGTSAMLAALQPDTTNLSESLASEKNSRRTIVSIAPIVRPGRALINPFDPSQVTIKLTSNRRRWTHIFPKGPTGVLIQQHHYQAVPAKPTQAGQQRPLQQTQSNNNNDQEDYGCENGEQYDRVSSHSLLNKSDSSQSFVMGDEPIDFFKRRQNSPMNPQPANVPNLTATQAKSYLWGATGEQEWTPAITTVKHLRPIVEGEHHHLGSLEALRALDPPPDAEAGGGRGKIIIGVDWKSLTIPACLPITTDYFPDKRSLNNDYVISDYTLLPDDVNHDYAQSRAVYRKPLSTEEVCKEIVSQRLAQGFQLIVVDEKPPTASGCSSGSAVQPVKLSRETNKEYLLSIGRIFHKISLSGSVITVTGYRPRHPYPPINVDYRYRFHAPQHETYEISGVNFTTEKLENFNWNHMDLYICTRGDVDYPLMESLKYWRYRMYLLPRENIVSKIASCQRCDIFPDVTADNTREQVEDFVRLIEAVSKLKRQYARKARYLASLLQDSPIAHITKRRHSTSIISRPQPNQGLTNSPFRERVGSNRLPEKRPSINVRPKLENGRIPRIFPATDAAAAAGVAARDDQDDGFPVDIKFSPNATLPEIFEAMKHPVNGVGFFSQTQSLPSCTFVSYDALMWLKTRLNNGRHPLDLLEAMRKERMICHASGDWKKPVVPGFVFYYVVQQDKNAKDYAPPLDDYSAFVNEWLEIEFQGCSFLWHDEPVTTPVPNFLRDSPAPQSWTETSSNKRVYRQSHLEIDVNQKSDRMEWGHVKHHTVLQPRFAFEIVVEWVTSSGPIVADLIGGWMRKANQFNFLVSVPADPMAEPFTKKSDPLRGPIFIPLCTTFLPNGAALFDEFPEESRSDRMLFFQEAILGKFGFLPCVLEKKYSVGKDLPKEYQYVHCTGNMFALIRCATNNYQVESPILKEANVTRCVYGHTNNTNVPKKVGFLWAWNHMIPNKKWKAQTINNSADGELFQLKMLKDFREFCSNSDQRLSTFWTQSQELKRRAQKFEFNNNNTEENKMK
UniProt Q9VKK2: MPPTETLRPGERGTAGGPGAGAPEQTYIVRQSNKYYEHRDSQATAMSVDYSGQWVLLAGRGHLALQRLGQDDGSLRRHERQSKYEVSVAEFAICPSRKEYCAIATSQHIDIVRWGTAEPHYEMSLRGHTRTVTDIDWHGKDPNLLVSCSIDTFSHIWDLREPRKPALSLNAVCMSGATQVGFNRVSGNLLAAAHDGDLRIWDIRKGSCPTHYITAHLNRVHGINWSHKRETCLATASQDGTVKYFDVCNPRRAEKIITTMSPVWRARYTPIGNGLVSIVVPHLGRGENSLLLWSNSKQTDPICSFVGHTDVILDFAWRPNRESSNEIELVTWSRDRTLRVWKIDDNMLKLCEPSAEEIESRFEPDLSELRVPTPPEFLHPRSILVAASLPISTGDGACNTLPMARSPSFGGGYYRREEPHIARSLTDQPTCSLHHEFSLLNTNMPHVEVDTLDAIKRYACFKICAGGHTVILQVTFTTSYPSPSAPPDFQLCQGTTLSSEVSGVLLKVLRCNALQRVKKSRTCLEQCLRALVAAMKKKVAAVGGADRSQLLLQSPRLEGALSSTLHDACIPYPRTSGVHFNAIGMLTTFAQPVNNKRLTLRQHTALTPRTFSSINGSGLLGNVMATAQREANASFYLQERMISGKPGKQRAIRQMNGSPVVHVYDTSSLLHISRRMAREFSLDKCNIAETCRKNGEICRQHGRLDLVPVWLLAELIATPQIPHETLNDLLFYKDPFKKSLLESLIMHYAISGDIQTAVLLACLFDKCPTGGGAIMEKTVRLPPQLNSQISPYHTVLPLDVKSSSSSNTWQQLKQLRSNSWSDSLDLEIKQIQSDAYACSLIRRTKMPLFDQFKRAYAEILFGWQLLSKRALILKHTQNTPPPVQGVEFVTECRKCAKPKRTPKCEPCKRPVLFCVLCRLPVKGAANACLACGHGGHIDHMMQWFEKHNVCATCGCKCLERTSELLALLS

The target of assay [1] is T1, dSestrin, transiently expressed in HEK-293T cells (D. melanogaster) (UniProt Q9W1K5).
T1 sequence: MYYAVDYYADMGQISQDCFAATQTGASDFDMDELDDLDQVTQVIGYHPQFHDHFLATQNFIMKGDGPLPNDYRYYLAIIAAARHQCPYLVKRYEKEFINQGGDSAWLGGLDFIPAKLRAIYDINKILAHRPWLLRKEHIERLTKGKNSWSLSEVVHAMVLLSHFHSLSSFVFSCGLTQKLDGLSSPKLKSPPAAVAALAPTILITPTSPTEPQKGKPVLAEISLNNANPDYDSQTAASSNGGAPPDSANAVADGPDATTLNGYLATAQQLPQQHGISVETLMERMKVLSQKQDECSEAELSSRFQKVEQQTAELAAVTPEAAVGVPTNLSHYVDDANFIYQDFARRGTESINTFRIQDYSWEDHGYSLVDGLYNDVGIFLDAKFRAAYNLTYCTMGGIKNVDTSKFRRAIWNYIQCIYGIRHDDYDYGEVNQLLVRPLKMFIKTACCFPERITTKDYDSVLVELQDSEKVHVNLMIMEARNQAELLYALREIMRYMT
Description: co-IP; anti-HA immunoprecipitates from HEK-293T cells co-transfected with the sensor and the GATOR complexes; Triton lysis buffer, washes with 300 mM NaCl.

The target of assay [2] is T2, HA-Unmet, transiently expressed in HEK-293T cells (D. melanogaster) (UniProt Q9I7X6).
T2 sequence: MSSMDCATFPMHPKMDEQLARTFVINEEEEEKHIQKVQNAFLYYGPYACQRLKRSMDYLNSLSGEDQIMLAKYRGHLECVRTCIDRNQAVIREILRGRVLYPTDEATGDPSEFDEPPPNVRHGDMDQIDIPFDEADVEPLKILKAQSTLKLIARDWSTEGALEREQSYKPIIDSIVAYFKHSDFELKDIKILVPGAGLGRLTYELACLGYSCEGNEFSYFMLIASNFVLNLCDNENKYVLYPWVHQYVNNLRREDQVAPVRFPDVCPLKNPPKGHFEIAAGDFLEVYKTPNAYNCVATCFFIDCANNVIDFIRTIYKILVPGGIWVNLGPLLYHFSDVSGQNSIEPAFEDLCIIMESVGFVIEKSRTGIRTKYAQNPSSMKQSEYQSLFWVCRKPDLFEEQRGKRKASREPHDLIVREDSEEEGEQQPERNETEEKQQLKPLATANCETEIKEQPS
The assay is described as above.

In assay [3] the target is T3, carnosine N-methyltransferase 1 (CARNMT1), human, transiently expressed in HEK-293T cells (human) (UniProt Q8N4J0).
T3 sequence: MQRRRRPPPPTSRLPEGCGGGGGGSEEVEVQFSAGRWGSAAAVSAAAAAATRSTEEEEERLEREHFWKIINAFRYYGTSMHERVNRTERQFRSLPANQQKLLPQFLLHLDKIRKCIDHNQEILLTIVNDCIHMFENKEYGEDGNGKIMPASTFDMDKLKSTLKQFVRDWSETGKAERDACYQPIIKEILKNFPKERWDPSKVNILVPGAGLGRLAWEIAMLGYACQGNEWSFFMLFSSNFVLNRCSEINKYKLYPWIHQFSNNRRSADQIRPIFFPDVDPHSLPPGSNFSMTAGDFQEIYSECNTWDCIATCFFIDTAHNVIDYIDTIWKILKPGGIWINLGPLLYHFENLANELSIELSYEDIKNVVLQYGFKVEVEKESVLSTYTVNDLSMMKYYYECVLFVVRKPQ
The description is as above.

Assay [4] deals with T4, HA-tagged Unmet, transiently expressed in S2R+ cells (D. melanogaster) (UniProt Q9I7X6).
T4 sequence: T2 sequence
Nature of the assay: co-IP; anti-HA immunoprecipitates from S2R+ cells with endogenous FLAG knock-in tags at Iml1 or dWDR59, transfected with HA-tagged cDNAs in MT vectors, 48 h 75 uM CuSO4; washes with 300 mM NaCl; methionine or leucine withdrawal in Supplementary Fig. 2b.

Results are given in words; binding and its absence hold for the method and conditions named. In cells and extracts the contact can be indirect. Some entries that bind do so weakly or less than the wild type. For part of these data: Tags and fused reporters may be left off the sequences shown.

As for “dGATOR1 complex, transiently expressed in HEK-293T cells (from UniProt Q9W0E3 1-1544; Q9VXA0 1-412; Q9VUB4 1-610)”, the binding result in assay [1] and in assay [2] was “no binding” in each case.

Regarding “dGATOR2 complex, transiently expressed in HEK-293T cells (from UniProt Q9VKK2 1-969; Q9XZ25 1-776; Q9VQ89 1-867; Q7K2X8 1-354; Q9V3J4 1-356)”, the binding entry in assay [3], in assay [1] and in assay [2] was “binds” in each case.

Consider “endogenous dGATOR2 complex of S2R+ cells (FLAG knock-in at dWDR59) (from UniProt Q9VKK2 1-969; Q9XZ25 1-776; Q9VQ89 1-867; Q7K2X8 1-354; Q9V3J4 1-356)”, for which the binding result in assay [4] was “binds”.
